Results as given in PubChem BioAssay AID504339 (National Center for Advancing Translational Sciences (NCATS), 2011).
About 17,000 (4.4%) of roughly 390,000 compounds were called active. Inconclusive means that the source gave no clear call. Such entries were picked first, then a sample of the others. Calls come from the whole dose curve; as a rule, active = well fitted inhibition curve with a large enough effect; inconclusive = small, poorly fitted or top-dose-only effect; inactive = no such curve, though single readings can be large or run the other way. A potency beside an inconclusive call is a rough fit, not a confirmed value.

What follows are compounds tested against Lysine-specific demethylase 4A (Homo sapiens) (UniProt O75164) (assay: qHTS Assay for Inhibitors of JMJD2A-Tudor Domain). Conditions: AlphaScreen JMJD2A-Tudor / H3K4me3 peptide binding; series mostly up to 114 µM.
Note: nearly all actives have a fitted effect of over 50% in size.
Potency is the fitted concentration of half-maximal effect; tags give direction and shape of the fitted curve.

Sequence of UniProt O75164 (O75164 whole entry, looked up, the tested form may be a part): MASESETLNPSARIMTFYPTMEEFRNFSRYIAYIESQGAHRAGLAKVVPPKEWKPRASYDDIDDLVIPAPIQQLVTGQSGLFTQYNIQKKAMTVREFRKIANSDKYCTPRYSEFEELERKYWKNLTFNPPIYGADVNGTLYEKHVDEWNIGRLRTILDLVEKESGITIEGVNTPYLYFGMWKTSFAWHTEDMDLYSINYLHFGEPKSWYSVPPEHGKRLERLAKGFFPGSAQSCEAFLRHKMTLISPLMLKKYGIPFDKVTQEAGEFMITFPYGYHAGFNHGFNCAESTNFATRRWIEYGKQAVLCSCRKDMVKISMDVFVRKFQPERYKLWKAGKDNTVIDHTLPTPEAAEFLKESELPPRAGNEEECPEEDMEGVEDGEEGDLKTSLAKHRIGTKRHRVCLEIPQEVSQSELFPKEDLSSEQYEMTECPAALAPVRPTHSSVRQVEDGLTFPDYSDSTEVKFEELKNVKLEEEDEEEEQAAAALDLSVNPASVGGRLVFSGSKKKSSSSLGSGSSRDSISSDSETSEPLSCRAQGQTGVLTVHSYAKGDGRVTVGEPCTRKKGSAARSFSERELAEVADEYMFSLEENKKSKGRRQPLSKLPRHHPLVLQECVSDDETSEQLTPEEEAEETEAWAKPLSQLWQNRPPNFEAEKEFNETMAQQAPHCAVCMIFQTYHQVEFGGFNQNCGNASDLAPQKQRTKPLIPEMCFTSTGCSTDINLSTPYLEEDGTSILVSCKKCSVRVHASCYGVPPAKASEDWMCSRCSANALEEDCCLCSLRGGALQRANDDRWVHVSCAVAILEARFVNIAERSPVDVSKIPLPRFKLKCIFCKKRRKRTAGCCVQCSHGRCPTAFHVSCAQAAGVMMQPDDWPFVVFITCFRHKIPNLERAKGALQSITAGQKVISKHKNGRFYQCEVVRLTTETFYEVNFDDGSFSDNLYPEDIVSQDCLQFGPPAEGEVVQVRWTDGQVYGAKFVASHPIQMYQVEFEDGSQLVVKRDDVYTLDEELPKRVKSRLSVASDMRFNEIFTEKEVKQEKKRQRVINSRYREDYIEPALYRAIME

Structure (SMILES)	Potency
CCOc1ccc(NC(=S)N2CCN(C/C=C/c3ccccc3)CC2)cc1	inconclusive: 22.4 µM [inhibitor, full curve]
Cc1cccc(-c2nc(CN3CCN(Cc4cccc(F)c4)CC3)c(C)o2)c1	inconclusive: 50.1 µM [inhibitor, partial curve]
O=C(CSc1nnc2ccccn12)Nc1cccc(-c2nc3ccccc3s2)c1	inconclusive: 70.8 µM [inhibitor, single point]
O=C(Nc1ccc2c(c1)CCCN2C(=O)c1cccs1)c1cccc(F)c1	inconclusive: 79.4 µM [inhibitor, partial curve]
CC(C)(C)N=C1NN=C(c2cc3ccccc3o2)CS1	inactive
CCCCn1c(SCC(=O)c2ccc(OCC)cc2)nc2cc(S(N)(=O)=O)ccc21	inconclusive: 89.1 µM [inhibitor, single point]
O=C(NCc1ccccn1)c1c(Cl)cccc1Cl	inactive
COc1ccc(CC(=O)NCC2CCCN(Cc3cccc(SC)c3)C2)cc1 (centres undefined)	inconclusive: 50.1 µM [inhibitor, partial curve]
O=C(/C=C/c1ccc([N+](=O)[O-])cc1)c1ccccc(=O)c1O	inconclusive: 63.1 µM [inhibitor, partial curve, poor fit]
N#C/C(=N\O)c1nc2ccccc2[nH]1	active: 56.2 µM
COc1ccc(OC)c(CCNC(=O)Cn2cccc2C(=O)c2ccccc2C)c1	inconclusive: 56.2 µM [inhibitor, partial curve]
CCCC(=O)N1CC(=O)Nc2ccc(Br)cc2C1c1ccc(F)cc1 (centres undefined)	inactive
CCN(c1ccccc1)S(=O)(=O)c1cc(C(=O)OCC(=O)c2c(N)n(C)c(=O)n(C)c2=O)ccc1C	inconclusive: 17.8 µM [inhibitor, full curve]
O=C(Nc1ccccc1O)N1c2ccccc2Sc2ccccc21	inconclusive: 56.2 µM [inhibitor, partial curve]
CC(C)c1cc(C(=O)O)c2cnn(C(C)C)c2n1	inconclusive: 22.4 µM [inhibitor, full curve]
CC(C)OC(=S)N/C(=N\S(=O)(=O)c1ccccc1)c1ccccc1	inactive
CC(C)(C)C(=O)[C@@H]1[C@@H]2C(=O)N(c3ccc4c(c3)OCCO4)C(=O)[C@@H]2C2c3ccccc3C=CN21 (some centres undefined)	inconclusive: 56.2 µM [inhibitor, partial curve]
CCOc1ccccc1NC(=O)c1nc(S(=O)(=O)Cc2cccc(C)c2)ncc1Cl	inconclusive: 25.1 µM [inhibitor, partial curve]
CCN1CCN(c2ccc(S(=O)(=O)N3CCCCC3)cc2NC(=O)COc2ccc(Cl)cc2)CC1	inconclusive: 50.1 µM [inhibitor, partial curve]
CCCCCCN1C=CC=C/C1=C/C=C(C#N)C#N	inconclusive: 39.8 µM [inhibitor, single point]
Cc1cccc(N2CC(C(=O)Nc3nnc(SCCC4OCCO4)s3)CC2=O)c1 (centres undefined)	inconclusive: 25.1 µM [inhibitor, full curve, poor fit]
CCOC(=O)C1CCCN(S(=O)(=O)c2cc(-c3onc(C)c3C)ccc2OC)C1 (centres undefined)	inactive

Structure (SMILES)	Potency
Cc1ccc(OCCCC(=O)Nc2ccc(N3CCOCC3)cc2)cc1	inactive
Cc1ccc2[nH]c(=O)c(C(c3nnnn3C3CCCC3)N3CCCc4ccccc43)cc2c1 (centres undefined)	inconclusive: 25.1 µM [inhibitor, full curve]
COc1cc(OC)cc(-c2c(-c3cccs3)c3cc(-c4ccc(CN5CCOCC5)cc4)ccc3n2C)c1	inconclusive: 35.5 µM [inhibitor, partial curve]
Cc1[nH]c2ccccc2c1C1(O)C(=O)N(Cc2ccc3c(c2)OCO3)c2ccccc21 (centres undefined)	inconclusive: 56.2 µM [inhibitor, partial curve]
O=C(Nc1nc2ccccc2[nH]1)c1cccc([N+](=O)[O-])c1	inactive
COC(=O)c1ccc(NC(=O)c2c(NCc3cccc(F)c3)sc3c2CCCC3)cc1	inconclusive: 50.1 µM [inhibitor, partial curve]
Cc1cc2c(cc1S(=O)(=O)N(CCN(C)C)Cc1ccccc1)OCC(=O)N2	inconclusive: 63.1 µM [inhibitor, partial curve, poor fit]
Cc1ccc(-c2csc(N=C(N)N)n2)c(C)c1	inconclusive: 0.562 µM [inhibitor, full curve, poor fit]
CC(C)c1ccc(NC(=O)[C@@H]2CCC(=O)N2C2OC(=O)c3ccccc32)cc1 (some centres undefined)	inactive
Nn1c(SCc2ccccc2)nc2ccccc21	inactive
Cc1ccc(-n2c(Cn3ncc4ccccc4c3=O)n[nH]c2=S)cc1	active: 8.91 µM
Cc1nc(C)n(C(C)CC(=O)O)n1 (centres undefined)	inconclusive: 89.1 µM [inhibitor, partial curve]
CCn1cc([N+](=O)[O-])c(C(=O)N2N=C(c3ccc(Cl)c(Cl)c3)CC2c2ccccc2O)n1 (centres undefined)	inconclusive: 35.5 µM [inhibitor, partial curve]
CC(C)CN1CCC(=O)N([C@H](CSc2ccccc2)Cc2ccccc2)CC1	inactive
COCc1ccc(C(=O)N2CCc3c([nH]c4ccccc34)C2c2ccccn2)s1 (centres undefined)	inconclusive: 56.2 µM [inhibitor, partial curve]
Oc1cc2c(cc1CN1CCc3ccccc3C1)OCO2	inconclusive: 20 µM [inhibitor, partial curve]
CC(Sc1n[nH]c(=O)[nH]c1=O)C(=O)OCc1ccccc1 (centres undefined)	inactive
CC(=O)Nc1ccc(S(=O)(=O)Nc2ccc(C)c(C)c2)cc1	inactive
Cc1ccc2c(=O)c(C(=O)c3ccc(F)cc3)cn(CC(=O)NCc3ccco3)c2n1	inconclusive: 79.4 µM [inhibitor, partial curve]
CC(/C=C/c1ccc(N(C)C)cc1)=N/N=C1/NC(=O)CC(C(=O)Nc2ccc(Cl)cc2)S1 (centres undefined)	inconclusive: 25.1 µM [inhibitor, partial curve]
CC(C)Cc1nc2ccc(N)cc2[nH]1	active: 22.4 µM
COc1ccc(CNC(=O)Cn2c(=O)c3cccn3c3cccnc32)cc1	inactive
